Measured values as given in publication PMC4336329 (PLoS ONE, 2015).
In all, about 310,000 compounds went through this assay and about 14,000 (4.5%) showed an effect of 50% or more. The effect is printed as a negative number. This is one part of the list.
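Note: peak tail current of the secondary pulse compared with the same well before compound.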

What follows are compounds tested against human ether-à-go-go-related gene (hERG) potassium channel (human, UniProt Q12809) (assay: primary screen, population patch clamp on CHO cells stably expressing hERG).
Sequence of human ether-à-go-go-related gene (hERG) potassium channel (Q12809 whole entry, looked up): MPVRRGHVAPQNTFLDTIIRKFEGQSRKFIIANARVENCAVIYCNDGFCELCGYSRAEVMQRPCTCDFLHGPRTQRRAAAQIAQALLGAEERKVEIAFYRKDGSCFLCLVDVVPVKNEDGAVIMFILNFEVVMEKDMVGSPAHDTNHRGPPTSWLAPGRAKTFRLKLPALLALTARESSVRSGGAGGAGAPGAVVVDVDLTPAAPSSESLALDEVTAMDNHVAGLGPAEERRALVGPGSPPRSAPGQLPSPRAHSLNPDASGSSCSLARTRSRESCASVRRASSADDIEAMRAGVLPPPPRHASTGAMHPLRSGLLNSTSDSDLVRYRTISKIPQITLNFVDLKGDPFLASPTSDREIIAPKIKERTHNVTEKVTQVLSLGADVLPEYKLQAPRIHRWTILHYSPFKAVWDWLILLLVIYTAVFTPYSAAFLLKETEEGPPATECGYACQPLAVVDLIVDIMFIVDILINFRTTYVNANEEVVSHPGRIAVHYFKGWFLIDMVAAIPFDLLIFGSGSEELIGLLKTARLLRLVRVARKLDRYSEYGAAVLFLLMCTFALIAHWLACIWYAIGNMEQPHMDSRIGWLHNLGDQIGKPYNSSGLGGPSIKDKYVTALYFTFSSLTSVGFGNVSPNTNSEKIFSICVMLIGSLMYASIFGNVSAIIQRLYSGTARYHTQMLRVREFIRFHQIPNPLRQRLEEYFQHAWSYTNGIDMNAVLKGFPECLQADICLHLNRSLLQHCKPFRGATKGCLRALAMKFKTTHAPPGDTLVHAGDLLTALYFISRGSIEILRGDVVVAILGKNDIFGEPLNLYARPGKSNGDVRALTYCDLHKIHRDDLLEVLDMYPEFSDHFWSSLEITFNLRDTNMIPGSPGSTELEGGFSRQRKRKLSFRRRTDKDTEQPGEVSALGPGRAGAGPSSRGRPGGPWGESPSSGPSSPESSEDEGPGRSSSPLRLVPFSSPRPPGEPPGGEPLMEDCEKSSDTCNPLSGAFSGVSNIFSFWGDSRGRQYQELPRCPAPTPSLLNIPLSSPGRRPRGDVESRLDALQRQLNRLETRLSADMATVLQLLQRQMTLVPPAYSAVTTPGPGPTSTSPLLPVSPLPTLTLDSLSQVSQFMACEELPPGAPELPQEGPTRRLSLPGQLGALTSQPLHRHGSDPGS
For `CCn1cnc2c1c(=O)n(Cc1ccc(C(=O)OC)cc1)c(=O)n2Cc1ccccc1`, the “hERG current change (%, negative = inhibition) at 10uM” value was 16.7%.
In the case of `COc1ccccc1NS(=O)(=O)c1ccc2oc(N)nc2c1`, the “hERG current change (%, negative = inhibition) at 10uM” value is reported as -0.0394%.
With `O=c1ccnc(SCn2nnc3ccccc3c2=O)[nH]1` the “hERG current change (%, negative = inhibition) at 10uM” value was 11.7%.
`COc1cc(C2=NOC(C(=O)NCc3ccccn3)C2)cc(OC)c1OC` (stereo not shown) was tested, and the “hERG current change (%, negative = inhibition) at 10uM” value was 16.7%.
`COc1ccccc1Cc1nnc(NC(=O)C2CCN(C(=O)c3ccco3)CC2)s1` was tested, and the “hERG current change (%, negative = inhibition) at 10uM” value was 6.21%.
With `COc1ccc2cc(/C=C/C(=O)c3ccco3)c(Cl)nc2c1` the “hERG current change (%, negative = inhibition) at 10uM” value was 23%.
With `COc1cc(Br)cc(/C=N/NC(=O)Cc2ccc(C(F)(F)F)cc2[N+](=O)[O-])c1O` the “hERG current change (%, negative = inhibition) at 10uM” value was 2.12%.
`COc1ccccc1NCN1C(=O)CCC1=O` was tested, and the “hERG current change (%, negative = inhibition) at 10uM” value was -1.36%.
For `CCCCNc1nc2ccccc2nc1NS(=O)(=O)c1ccc(F)cc1`, the “hERG current change (%, negative = inhibition) at 10uM” value was -0.523%.
For `Cn1ccsc1=NC(=O)c1ccc(S(=O)(=O)C(F)F)cc1`, the “hERG current change (%, negative = inhibition) at 10uM” value was 7.74%.
`NC(=S)NC1CC2C=CC1C2` (stereo not shown) was tested, and the “hERG current change (%, negative = inhibition) at 10uM” value was 8.86%.
`COc1ccccc1C(O)(C(=O)NN(C(=O)c1ccccc1)c1ccccc1C)c1cccs1` (stereo not shown) was tested, and the “hERG current change (%, negative = inhibition) at 10uM” value was -26.9%.
`CCc1ccc(S(=O)(=O)Nc2ccncc2)cc1` was tested, and the “hERG current change (%, negative = inhibition) at 10uM” value was 5.53%.
In the case of `CCCc1cc(C(N)=O)c(NC(=O)c2ccco2)s1`, the “hERG current change (%, negative = inhibition) at 10uM” value is reported as 16.8%.
For `O=C(Cn1cc2c(n1)CCCC2)NCCCN1CCN(c2ccccc2F)CC1`, the “hERG current change (%, negative = inhibition) at 10uM” value was -31.1%.
For `NS(=O)(=O)c1cccc(NC(=O)COC(=O)c2ccccc2C(=O)c2ccccc2)c1`, the “hERG current change (%, negative = inhibition) at 10uM” value was -49.5%.
`CN1C(=O)[C@@H]2[C@@H]3C[C@@H]([C@H]4ON=C(c5ccc(Cl)cc5)[C@@H]34)[C@@H]2C1=O` was tested, and the “hERG current change (%, negative = inhibition) at 10uM” value was -26.2%.
For `Cn1nc(C(F)(F)F)cc1-c1ccc(/C=C(\C#N)C(=O)c2ccccc2)s1`, the “hERG current change (%, negative = inhibition) at 10uM” value was 15.2%.
With `Cc1c(NC(=O)C(C)OC(=O)c2cc3c4ccccc4n(C)c3s2)c(=O)n(-c2ccccc2)n1C` (stereo not shown) the “hERG current change (%, negative = inhibition) at 10uM” value was -68.5%.
`O=C(NC1CCC(O)CC1)c1ccc2c(c1)S(=O)(=O)N=C1CCCCCN12` (stereo not shown) was tested, and the “hERG current change (%, negative = inhibition) at 10uM” value was 11.1%.
`CCOc1ccc(-n2c(SCC(=O)OC)nc3sc4c(c3c2=O)CCN(C)C4)cc1` was tested, and the “hERG current change (%, negative = inhibition) at 10uM” value was -0.924%.
With `CC(C)NC(=O)c1ccccc1N(Cc1ccccc1)S(C)(=O)=O` the “hERG current change (%, negative = inhibition) at 10uM” value was 13%.
`CC(C)(C)c1ccc(CN2C(=O)c3ccccc3S2(=O)=O)cc1` was tested, and the “hERG current change (%, negative = inhibition) at 10uM” value was 7.52%.
`O=C(NCC1CCCO1)c1ccccc1OCc1ccc(Cl)cc1` (stereo not shown) was tested, and the “hERG current change (%, negative = inhibition) at 10uM” value was -1.91%.
In the case of `Cc1ccccc1CNC1CCCCC1.Cl`, the “hERG current change (%, negative = inhibition) at 10uM” value is reported as -7.81%.
`CN(Cc1ccccc1)CC(O)COc1ccc(CNCCCOc2cccnc2)cc1` (stereo not shown) was tested, and the “hERG current change (%, negative = inhibition) at 10uM” value was 11.7%.
`O=C(O)CC1=C(O)C(=O)N(c2ccccc2)C1c1ccc(Cl)cc1` (stereo not shown) was tested, and the “hERG current change (%, negative = inhibition) at 10uM” value was 9.31%.
For `Cc1sc2ncn(CC(=O)NC3CCCCC3)c(=O)c2c1C`, the “hERG current change (%, negative = inhibition) at 10uM” value was -18.4%.
`O=c1[nH]c(SCc2nc3ccccc3c(=O)n2-c2ccccc2C(F)(F)F)nc2ccccc12` was tested, and the “hERG current change (%, negative = inhibition) at 10uM” value was -7.23%.
`O=C(Nc1cccnc1)Nc1cccc(F)c1` was tested, and the “hERG current change (%, negative = inhibition) at 10uM” value was 11%.
For `O=C(N/N=C/c1ccc(F)cc1)c1cccc(NC(=O)c2ccc(F)cc2)c1`, the “hERG current change (%, negative = inhibition) at 10uM” value was -4.54%.
For `COC(=O)c1[nH]c2cc(OC)c(OC)cc2c1/C=N/Nc1ccccc1`, the “hERG current change (%, negative = inhibition) at 10uM” value was 14.2%.
In the case of `CCC(C)N1CCN(S(=O)(=O)c2ccc3ccccc3c2)CC1.O=C(O)C(=O)O` (stereo not shown), the “hERG current change (%, negative = inhibition) at 10uM” value is reported as 14.9%.
With `CC(=O)c1c(C)[nH]c(C(=O)OCC(=O)Nc2c(C)cccc2C)c1C` the “hERG current change (%, negative = inhibition) at 10uM” value was 20.8%.
With `CC(=O)Nc1ccc(S(=O)(=O)N(Cc2ccco2)CC2CCCO2)cc1` (stereo not shown) the “hERG current change (%, negative = inhibition) at 10uM” value was 8.3%.
`COc1ccc(-n2c(Cc3cccn3C)nnc2SCC(=O)NCCc2ccccc2)cc1` was tested, and the “hERG current change (%, negative = inhibition) at 10uM” value was 6.15%.
`O=C(N/N=C/c1cn(-c2ccccc2)nc1-c1cccnc1)c1ccc(F)cc1` was tested, and the “hERG current change (%, negative = inhibition) at 10uM” value was -41.3%.
`COc1ccc(Oc2nc(-c3ccncc3)nc3ccccc23)cc1` was tested, and the “hERG current change (%, negative = inhibition) at 10uM” value was 14.1%.
With `CC1CCN(C2=C(NS(=O)(=O)c3ccccc3)C(=O)c3ccccc3C2=O)CC1` the “hERG current change (%, negative = inhibition) at 10uM” value was -21.1%.
With `O=C(CSc1ccc(-c2ccc(F)cc2)nn1)NC1CCCCC1` the “hERG current change (%, negative = inhibition) at 10uM” value was -6.19%.
With `Cn1nc(-c2ccc(OCC(N)=O)cc2)c2ccccc2c1=O` the “hERG current change (%, negative = inhibition) at 10uM” value was -8.41%.
`COc1ccc(C2CC(C(F)(F)F)n3nc(C(=O)O)cc3N2)cc1OC` (stereo not shown) was tested, and the “hERG current change (%, negative = inhibition) at 10uM” value was -7.6%.
In the case of `CCOC(=O)c1cn2ccc(C)cc2n1`, the “hERG current change (%, negative = inhibition) at 10uM” value is reported as 24%.
